Experimental data taken from PubChem BioAssay AID504832 (National Center for Advancing Translational Sciences (NCATS), 2011).
The whole screen tested about 310,000 compounds, of which about 18,000 (5.8%) were called active. The inconclusive results got no clear call from the source; some entries with a clear call stand among them for comparison. Calls follow the shape of the dose curve; as a rule, active = well fitted inhibition curve with a large enough effect; inconclusive = small, poorly fitted or top-dose-only effect, or another doubt; inactive = no such curve, though single readings can be large or run the other way. No potency is given beside an inconclusive call; the fits are too rough.

Assay: Primary qHTS for delayed death inhibitors of the malarial parasite plastid, 48 hour incubation
Conditions: P. falciparum luciferase growth in erythrocytes; series mostly up to 28.7 µM
Method in brief: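 Luciferase-expressing P. falciparum in infected erythrocytes (2% hematocrit, 0.1% parasitemia final) in RPMI 1640/0.5% Albumax were exposed to compound for 48 hours at 37 C, 5% CO2; growth read as luminescence.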
Potency is read from the fitted curve at half-maximal effect; tags tell the direction and shape of the fitted curve.

SMILES	Potency
Cc1nc(CCNC(=O)CC2C(=O)NCCN2Cc2ccccc2F)sc1C (configuration not stated)	inactive
Cc1cc(NC(=O)c2cccnc2Cl)ccc1NC(=O)c1cc2ccccc2o1	inconclusive [inhibitor, full curve]
COc1ccc(S(=O)(=O)NCc2ccc(F)cc2)cc1OC	inactive
COc1cccc(C2CC(c3ccc(Br)cc3)=NN2C(=O)c2ccncc2)c1OC (configuration not stated)	active: 11.7 µM
COc1ccc(C2=NC(C)(C)Cc3cc(OC)c(OC)cc32)cc1OC	inactive
NC(Cc1ccccc1)C(O)(c1ccccc1)c1ccccc1 (configuration not stated)	inconclusive [inhibitor, single point]
CCOc1ccccc1N1CCN(c2nc3ccccc3nc2C(C#N)C(=O)OC)CC1 (configuration not stated)	inconclusive [inhibitor, full curve]
O=C(Cn1c(-c2ccccc2)c[n+]2ccsc12)c1ccc(Br)cc1	inconclusive [inhibitor, single point]
COc1ccccc1NC(=O)c1nn(-c2ccccc2)ccc1=O	inconclusive [inhibitor, partial curve, poor fit]
CC(C)C1CC(c2ccccc2)(C(CN)CO)CCO1 (configuration not stated)	inconclusive [inhibitor, partial curve, poor fit]
COc1ccc(C2NC(c3ccc(OC)c(OC)c3OC)C(C)C(=O)C2C)c(OC)c1OC (configuration not stated)	inconclusive [inhibitor, single point]
Cc1ccc(C(C)C)cc1OCCCCN1CCCC1	inconclusive [inhibitor, partial curve, poor fit]
COc1ccc(-c2csc(NC(=O)CS(=O)(=O)c3ccccc3)n2)cc1	inconclusive [inhibitor, partial curve]
COc1ccc(C2=CC(=O)C[C@H](c3ccc(OC)c(OC)c3)C2)cn1	inconclusive [inhibitor, single point]
O=C(COc1ccccc1)Nc1nc(-c2cccnc2)cs1	inconclusive [inhibitor, single point]
Cc1ccc(S(=O)(=O)N2CCN(c3ccc([N+](=O)[O-])c(NCCN4CCOCC4)c3)CC2)cc1	inconclusive [inhibitor, partial curve, poor fit]
Cc1c(C#N)c(NC(=O)c2ccccc2)n(Cc2ccccc2)c1C	inconclusive [inhibitor, single point]
COc1cccc(CSc2nnnn2-c2ccc(O)cc2)c1	active: 9.28 µM
COc1cccc(NC(=S)N(CCCN2CCOCC2)C(C)c2cc3ccccc3o2)c1 (configuration not stated)	inconclusive [inhibitor, single point]
Cn1ncc2c(NNC(=O)Cc3ccccc3)ncnc21	inactive
O=C(CNc1cc(S(=O)(=O)N2CCOCC2)ccc1N1CCCC1)N1CCc2ccccc21	active: 13.1 µM
CC(=O)Nc1ccc(OC/C=C(\C)Cl)cc1	inactive
CN(C)c1nc(OCCNC(=O)COc2ccc(Cl)cc2Cl)nc(N2CCCCC2)n1	inconclusive [inhibitor, single point]
CC(=O)c1ccc(OCc2cc(C(=O)NC(C)c3cnn(C)c3)no2)cc1 (configuration not stated)	inactive

SMILES	Potency
COc1cc2c(cc1OC)C(C(=O)Nc1ccc(F)c(Cl)c1)CC(=O)N2 (configuration not stated)	inactive
COc1cc(/C=N/NC(=S)NCc2ccccc2)ccc1OCC#N	inactive
CCNC(=S)NNC(=O)c1cc(C2CC2)nc2ccccc12	inconclusive [inhibitor, single point]
Cn1c(=O)c2c(nc(-c3ccccc3)n2C)n(Cc2ccccc2)c1=O	inconclusive [inhibitor, single point]
O=C1CC(c2cccnc2)=NN1c1ccccc1	inactive
O=C(Nc1nc(-c2ccccn2)cs1)c1ccc(-c2ccccc2F)o1	inconclusive [inhibitor, partial curve, poor fit]
Brc1ccc(/C=N/Nc2ncnc3c2cnn3Cc2ccccc2)cc1	inconclusive [inhibitor, full curve, poor fit]
COc1ccc(C(=O)C(C)OC(=O)c2cccc(S(=O)(=O)Nc3cc(Cl)c(OC)cc3OC)c2)cc1 (configuration not stated)	inactive
CCOC(=O)c1c(C)oc2c1c(C=NCc1ccccn1)c(O)c1ccccc12	active: 2.08 µM
COc1cc(/C=C/C(=O)N(C)CC(=O)Nc2ccccc2Br)cc2c1OCCO2	active: 8.28 µM
COC(=O)c1cc(NS(=O)(=O)c2ccc(N3CCOCC3)c(N)c2)cc(C(=O)OC)c1	inconclusive [inhibitor, partial curve, poor fit]
O=C(NCc1ccccc1)C(=O)NCC1OCCN1S(=O)(=O)c1ccc([N+](=O)[O-])cc1 (configuration not stated)	inactive
O=C(Nc1ccc(Br)c2ccccc12)c1ccc2ccccc2c1O	active: 11.7 µM
CCOc1ccc(CC(=O)Nc2nccs2)cc1OCC	inconclusive [inhibitor, single point]
O=C(COc1ccc(F)cc1)N1CCC(c2ccccc2)C1 (configuration not stated)	inactive
CCOC(=O)N1CCN(C(=O)/C(=C/c2cccc3ccccc23)NC(=O)c2ccc(OC)cc2)CC1	active: 13.1 µM
CC(C)C(C)NC(=O)COC(=O)c1cc(S(=O)(=O)N(C)C)ccc1N1CCCC1 (configuration not stated)	inconclusive [inhibitor, single point]
COCCCNC(=O)c1ccc(Cn2c(=O)[nH]c3ccccc3c2=O)cc1	inactive
Cc1ccccc1N1C(=O)c2ccccc2N2C(=O)c3ccccc3C12 (configuration not stated)	inconclusive [inhibitor, single point]
O=C(Cn1nc(Cc2cccnc2)c2ccccc2c1=O)Nc1cc(F)ccc1F	inconclusive [inhibitor, partial curve]
CCOP(=O)(OCC)C(O)c1ccc(OC)c(OC)c1 (configuration not stated)	inactive
Cc1ccc(C)c(N(CC(=O)N/N=C/c2ccc(-c3ccc([N+](=O)[O-])cc3)o2)S(=O)(=O)c2ccccc2)c1	inconclusive [inhibitor, single point]
O=C(/C=C/c1ccc([N+](=O)[O-])cc1)c1ccco1	inactive
C[C@@H]1C[C@H]2OC(=O)C3(CO3)[C@H]2[C@H](O)[C@]2(C)C(=O)C3OC3[C@@H]12 (some centres not stated)	active: 11.7 µM

SMILES	Potency
CCn1c(SCC(=O)N2CCN(c3ccccc3)CC2)nc2c(c1=O)SC(C)C2 (configuration not stated)	inconclusive [inhibitor, single point]
CCOc1ccc(NC(=O)CSc2nnc(-c3cc(C)[nH]n3)n2N)cc1	inconclusive [inhibitor, single point]
Cc1cc(OCC(=O)Nc2sc3c(c2C#N)CC(C)(C)NC3(C)C)c(C(C)C)cc1Cl	active: 13.1 µM
O=C(N/N=C/c1c(O)n(C2CCCCC2)c(=S)[nH]c1=O)c1ccccc1	inactive
COc1ccc(CCNC2CC(=O)N(CCc3ccccc3)C2=O)cc1 (configuration not stated)	inactive
O=C(CSC1=NC(=O)C(Cc2ccccc2)C(=O)N1)NC1CCCCC1 (configuration not stated)	inconclusive [inhibitor, partial curve, poor fit]
Cc1ccc(N(C(=O)c2snc(C(N)=O)c2N)C(C(=O)NCC2CCCO2)c2c[nH]c3ccccc23)cc1 (configuration not stated)	active: 7.38 µM
CCOc1cc(C)c(Cl)cc1S(=O)(=O)NC1CC(C)(C)NC(C)(C)C1	inconclusive [inhibitor, single point]
Nc1c(/C=C2/C=CC(=O)C(O)=C2)c(=O)nc2sc(CC(=O)N3CCCC3)nn12	inactive
COc1ccccc1N1CCN(C(=O)CCc2ccc(S(=O)(=O)NCC(C)C)cc2)CC1	inconclusive [inhibitor, partial curve, poor fit]
C/C(=N\NC(=O)c1cc(O)ccc1O)c1cccc(NC(=O)c2ccc(Cl)cc2)c1	inconclusive [inhibitor, single point]
CCOC(=O)N1CC=C2C(C#N)=C(N)C(C#N)(C#N)[C@H](c3ccc(OCC)c(OCC)c3)[C@H]2C1	active: 5.22 µM
Cc1cc(/C=C(\C#N)C(=O)Nc2ccccc2)c(C)n1-c1ccc2c(c1)OCO2	active: 11.7 µM
Cn1ccs/c1=N\C(=O)Nc1ccccc1	inactive
O=C(Nc1ccccc1C(F)(F)F)c1ccc(CN2CCC(Cc3ccccc3)CC2)cc1	active: 13.1 µM
CCOC(=O)c1cc2c(=O)n3cccc(C)c3nc2n(CCCOC)c1=NC(=O)c1cccnc1	inconclusive [inhibitor, partial curve]
CC1CCN(CC(=O)Nc2ccc(S(=O)(=O)N3C(C)CCCC3C)cc2)CC1 (configuration not stated)	inconclusive [inhibitor, partial curve, poor fit]
COc1ccc(Cc2nnc(NC(=O)c3ccccc3F)s2)cc1OC	inactive
COC(=O)COc1ccc2c(c1)O/C(=C\c1cccc([N+](=O)[O-])c1)C2=O	inactive
COCCCN1C(=O)C(=O)/C(=C(/O)c2ccccc2)C1c1ccc2c(c1)OCO2 (configuration not stated)	inactive
CN(C)S(=O)(=O)c1ccc(C(=O)OCC(=O)c2csc(N3CCCCC3)n2)cc1	inactive
CCCC[N+]12CCC(CC1)C(Cc1ccccc1)C2 (configuration not stated)	inconclusive [inhibitor, full curve]
O=c1c(Cc2ccc(Cl)cc2)c(O)ccn1Cc1ccccc1	inconclusive [inhibitor, single point]
CC(CC(=O)O)CC(=O)Nc1cc(C(F)(F)F)cc(C(F)(F)F)c1 (configuration not stated)	inconclusive [inhibitor, partial curve, poor fit]
